In all, about 370,000 compounds went through this assay and about 150 (0.041%) were called active. The shares of active, inactive and inconclusive entries below differ from those in the screen. Calls come from the whole dose curve; as a rule, active = well fitted inhibition curve with a large enough effect; inconclusive = small, poorly fitted or top-dose-only effect; inactive = flat fitted curve, though single readings scatter. Potencies of inconclusive entries are left out as doubtful fits.
Each compound was assayed against Beta-lactamase (Escherichia coli (strain K12)) (UniProt P00811) (assay: qHTS Inhibitors of AmpC Beta-Lactamase (assay with detergent)). Details: AmpC hydrolysis of nitrocefin, absorbance 480 nm, 0.01% Triton; activity change, negative = inhibition: at 114 µM (top of the series).
Chain of UniProt P00811 (P00811 whole entry, looked up): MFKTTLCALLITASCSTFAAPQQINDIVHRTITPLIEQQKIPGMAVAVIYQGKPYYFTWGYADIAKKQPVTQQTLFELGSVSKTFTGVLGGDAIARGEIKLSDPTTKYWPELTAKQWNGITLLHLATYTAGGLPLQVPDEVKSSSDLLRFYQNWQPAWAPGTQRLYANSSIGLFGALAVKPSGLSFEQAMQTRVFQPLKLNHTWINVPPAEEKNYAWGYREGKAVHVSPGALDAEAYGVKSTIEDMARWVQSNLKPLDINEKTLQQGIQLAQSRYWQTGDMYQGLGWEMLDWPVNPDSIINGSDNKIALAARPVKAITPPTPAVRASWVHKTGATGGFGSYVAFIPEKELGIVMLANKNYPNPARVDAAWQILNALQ
In short: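 AmpC (5.3 nM in the dispensed reagent) in 20 mM phosphate pH 7.0 with 0.01% (detergent screen) or 0.0001% Triton X-100 was preincubated with compounds for 15 min at room temperature. Nitrocefin was then added from an 800 uM solution, and hydrolysis was followed at 480 nm.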
For `COc1ccc(-c2nc(S(=O)(=O)c3ccc(C)cc3)c(N3CCCC3)o2)cc1`, the Potency was inconclusive [inhibitor, full curve].
For `CCC(OC(=O)c1ccco1)C(=O)NC1CCCC1` (stereo unspecified), the Potency was inconclusive [inhibitor, partial curve, poor fit].
In the case of `CCn1c(COc2ccc(=O)n(-c3ccccc3)n2)nnc1SC`, the Potency is reported as inconclusive [inhibitor, partial curve, poor fit].
With `COC(=O)[C@H]1C[C@@H]1[C@H](NS(=O)(=O)c1ccc2ccccc2c1)c1ccccc1` the Potency was inconclusive [inhibitor, full curve, poor fit].
With `O=C(CSC(=S)N1CCCC1)NCC(=O)Nc1ccccc1Br` the Potency was inconclusive [inhibitor, partial curve, poor fit].
`CC(=O)Nc1ccc(-c2csc(NC(=O)Cc3ccccc3F)n2)cc1` was tested, and the Potency was inconclusive [inhibitor, full curve].
With `Cc1ccc(SCCSc2nc(C)cc(=O)[nH]2)cc1` the “activity change, negative = inhibition” value was inactive: -12.5%.
In the case of `O=C(Nc1ccc(C(=O)N2CCCCC2)cc1)C1CCCCC1`, the Potency is reported as inconclusive [inhibitor, single point].
For `Cc1cccc(Cn2c(-c3cccc(Br)c3)nc3ccccc32)c1`, the “activity change, negative = inhibition” value was inactive: 0.918%.
For `COc1ccc(Br)cc1CN1CCCCCC1`, the Potency was inconclusive [inhibitor, full curve, poor fit].
With `O=C(COc1c(Br)cc(Br)cc1Br)N/N=C/c1ccco1` the “activity change, negative = inhibition” value was inactive: -14.8%.
`COc1ccc(-n2c(Cc3cccn3C)nnc2SCC(=O)N2CCOCC2)cc1` was tested, and the Potency was inconclusive [inhibitor, full curve, poor fit].
In the case of `Cc1ccc(CSc2nnc(-c3ccncc3)o2)c(C)c1`, the Potency is reported as inconclusive [inhibitor, single point].
With `Cc1nc2sc(C(c3ccccc3)N3CC(C)OC(C)C3)c(O)n2n1` (stereo unspecified) the “activity change, negative = inhibition” value was inactive: -0.468%.
`CCOc1ncccc1C(=O)N1CCN(C(c2ccccc2)c2ccccc2)CC1` was tested, and the Potency was inconclusive [inhibitor, partial curve].
`Cc1ccc(S(=O)(=O)N/N=C/c2ccc(O)cc2O)cc1[N+](=O)[O-]` was tested, and the “activity change, negative = inhibition” value was inactive: 1.5%.
For `Cc1cccc(N(CC(=O)Nc2ccccc2C(F)(F)F)S(=O)(=O)c2ccccc2)c1C`, the “activity change, negative = inhibition” value was inactive: -12%.
For `COc1ccc(NC2=CC(c3ccc(OC)c(OC)c3)N(c3ccc(OC)cc3)C2=O)cc1` (stereo unspecified), the Potency was inconclusive [inhibitor, full curve, poor fit].
With `O=C(c1ccc(Cl)cc1)C1CCN(C(=O)N2CCOCC2)CC1` the Potency was inconclusive [inhibitor, partial curve, poor fit].
With `CC(=O)c1cccc(NC(=O)c2ccc(N(C)S(=O)(=O)c3ccc(C)cc3)cc2)c1` the “activity change, negative = inhibition” value was inactive: 4.19%.
In the case of `COc1ccc(OC(C)C(=O)N(C)Cc2nc(-c3cccc(C)c3)no2)cc1` (stereo unspecified), the “activity change, negative = inhibition” value is reported as inactive: 0.299%.
`CC(NS(=O)(=O)c1ccc2c(c1)CC(C)N2C(=O)C1CC1)c1ccccc1` (stereo unspecified) was tested, and the Potency was inconclusive [inhibitor, partial curve, poor fit].
For `O=S(=O)(c1ccccc1)N1CCN(CCO)CC1`, the Potency was inconclusive [inhibitor, full curve, poor fit].
For `O=S1(=O)CCO[C@H]2Cc3ccccc3[C@H]2N1Cc1ccccc1Br`, the Potency was inconclusive [inhibitor, single point].
`Cc1c(NS(=O)(=O)c2cc(C(=O)NC(C)c3ccccc3)ccc2Cl)c(=O)n(-c2ccccc2)n1C` (stereo unspecified) was tested, and the Potency was inconclusive [inhibitor, full curve, poor fit].
For `Cc1nn2c(C)c(C(=O)NC(C)c3ccccc3)cnc2c1-c1ccc(F)cc1` (stereo unspecified), the “activity change, negative = inhibition” value was inactive: 8.74%.
For `Nc1nonc1C(=O)NCCNC(=O)c1cccs1`, the Potency was inconclusive [inhibitor, full curve].
In the case of `OCCNCc1cc(Br)ccc1OCc1ccc(Cl)cc1`, the “activity change, negative = inhibition” value is reported as inactive: -1.89%.
In the case of `C/C(CC(=O)Nc1cc(C)ccn1)=N\NC(=O)c1ccc(C(C)(C)C)cc1`, the Potency is reported as inconclusive [inhibitor, full curve, poor fit].
`Nn1c(SCC(=O)Nc2ccc3c(c2)OCCO3)nncc1=O` was tested, and the “activity change, negative = inhibition” value was inactive: 3.69%.
In the case of `O=C1C[C@@H](c2ccc(O)cc2)Oc2cc(O)cc(O)c21`, the Potency is reported as inconclusive [inhibitor, partial curve, poor fit].
For `Nc1nc(SCc2ccc(Cl)cc2)ns1`, the “activity change, negative = inhibition” value was inactive: -8.23%.
For `CCCCN(C(=O)C(C)Oc1ccc(Br)cc1)c1c(N)n(CC(C)C)c(=O)[nH]c1=O` (stereo unspecified), the Potency was inconclusive [inhibitor, full curve, poor fit].
In the case of `CCC(=O)O[C@]1(C(=O)CCl)[C@@H](C)C[C@H]2[C@@H]3CCC4=CC(=O)C=C[C@]4(C)[C@@]3(F)[C@@H](O)C[C@@]21C`, the Potency is reported as inconclusive [inhibitor, single point].
With `O=C(N1CCOCC1)N1CCN(c2ccccc2F)CC1` the Potency was inconclusive [inhibitor, full curve].
For `Cc1c(/C=C/C(=O)c2ccccc2O)cnn1C`, the Potency was inconclusive [inhibitor, partial curve].
With `Cc1oc2ccc(OS(C)(=O)=O)cc2c1C(=O)OC(C)C` the Potency was inconclusive [inhibitor, single point].
In the case of `O=C(CN(c1ccccc1)S(=O)(=O)c1ccccc1)N1CCN(Cc2ccc3c(c2)OCO3)CC1`, the Potency is reported as inconclusive [inhibitor, full curve].
`NC(=O)c1ccccc1OCc1cccc2ccccc12` was tested, and the “activity change, negative = inhibition” value was inactive: 0.831%.
With `COc1cccc(NC(=O)CN(C)C(=O)CN2C(=O)NC(C)(c3ccc4ccccc4c3)C2=O)c1` (stereo unspecified) the Potency was inconclusive [inhibitor, full curve, poor fit].
With `CCCCn1c(=O)[nH]c(=O)c2c1nc(-c1ccc(-c3ccccc3)cc1)n2C` the Potency was inconclusive [inhibitor, full curve, poor fit].
With `COc1cccc(/C=N/NC(=O)Cn2ccnc2C)c1` the Potency was inconclusive [inhibitor, partial curve].
For `COc1ccc(-c2noc(-c3ccc(N4CCCC4)c([N+](=O)[O-])c3)n2)cc1OC`, the Potency was inconclusive [inhibitor, partial curve, poor fit].
For `CCCS(=O)(=O)N1CCCC(C(=O)NCc2cccnc2)C1` (stereo unspecified), the Potency was inconclusive [inhibitor, full curve].
`CCN(CC)C(=O)c1sc(NC(=O)Cc2cccs2)c(C#N)c1C` was tested, and the Potency was inconclusive [inhibitor, full curve, poor fit].
For `O=C(c1ccc(F)cc1)N1CCCCC(S(=O)(=O)c2ccccc2)C1=O` (stereo unspecified), the Potency was inconclusive [inhibitor, partial curve, poor fit].
For `COc1ccc(Br)cc1S(=O)(=O)Nc1cc(-c2cn3ccccc3n2)ccc1C`, the “activity change, negative = inhibition” value was inactive: 5.08%.
In the case of `O=C1CCNCCN1[C@H](CO)Cc1ccccc1`, the Potency is reported as inconclusive [inhibitor, full curve, poor fit].
`COc1cccc(CNCCc2cccc(F)c2)c1OC` was tested, and the “activity change, negative = inhibition” value was inactive: -19.8%.
With `CN1CCN(C2CCN(c3cccc(Cl)c3)CC2)CC1CCO` (stereo unspecified) the Potency was inconclusive [inhibitor, partial curve, poor fit].
For `CCN1CCN(C/C(C)=C/c2ccccc2)CC1`, the Potency was inconclusive [inhibitor, full curve, poor fit].
With `COc1ccc(-n2nc(C(=O)N3CCCCC3C)c3c4ccccc4n(C)c3c2=O)cc1Cl` (stereo unspecified) the “activity change, negative = inhibition” value was inactive: -4.6%.
`N#CC(C(=O)OC1CCCCC1)c1nc2ccccc2nc1N1CCOCC1` (stereo unspecified) was tested, and the Potency was inconclusive [inhibitor, partial curve, poor fit].
With `CC(C)Cc1nnc(NC(=O)CSc2nc(N)cc(=O)[nH]2)s1` the Potency was inconclusive [inhibitor, single point].
For `CC1CCCC(NC(=O)COC(=O)Cc2c[nH]c3ccccc23)C1C` (stereo unspecified), the Potency was inconclusive [inhibitor, full curve, poor fit].
With `c1ccc(-c2ccc(C3=Nn4c(Cn5nnc6ccccc65)nnc4SC3)cc2)cc1` the Potency was inconclusive [inhibitor, full curve, poor fit].
With `CCCn1c(Nc2ccc(Cl)cc2)nc2ccccc21` the Potency was inconclusive [inhibitor, partial curve, poor fit].
In the case of `CN(C)CC/C=C1\c2ccccc2Sc2ccc(Cl)cc21`, the Potency is reported as inconclusive [inhibitor, partial curve, poor fit].
For `O=C(CN(C(=O)CCC(=O)Nc1ccccn1)C1CCCC1)NCc1ccc(F)cc1`, the Potency was inconclusive [inhibitor, full curve].
`Cc1ccc(C)c(NC(=O)CCN2CC(C)CC(C)C2)c1` (stereo unspecified) was tested, and the Potency was inconclusive [inhibitor, partial curve, poor fit].
With `O=C(CO)N/N=C/c1ccccc1F` the Potency was inconclusive [inhibitor, full curve, poor fit].
`Nc1ccc(N2CCCCCC2)cc1` was tested, and the “activity change, negative = inhibition” value was inactive: -6.99%.
For `CCc1nnc(NS(=O)(=O)c2ccc(NC(=O)/C=C/c3ccccc3Cl)cc2)s1`, the “activity change, negative = inhibition” value was inactive: -0.57%.
With `N#C/C(=C\c1ccccc1[N+](=O)[O-])C(=O)Nc1ccc(S(N)(=O)=O)cc1` the Potency was inconclusive [inhibitor, full curve, poor fit].
With `CC(C)(C)n1nnnc1C(c1cccnc1)N1CCN(C(=O)c2ccco2)CC1` (stereo unspecified) the Potency was inconclusive [inhibitor, single point].
In the case of `CCn1c(SCC(=O)Nc2ccc(NC(C)=O)cc2)nnc1C1CC1`, the Potency is reported as inconclusive [inhibitor, partial curve, poor fit].

Source: PubChem BioAssay AID485294 (National Center for Advancing Translational Sciences (NCATS), 2010)
Note: nearly all actives have a fitted effect of over 25% in size.
Potency is the fitted concentration of half-maximal effect; tags give direction and shape of the fitted curve.
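Throughout, for activity change, negative = inhibition: 0% = no-compound wells and -100% = no-enzyme wells.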
